The campaign covered roughly 110,000 compounds. About 230 (0.21%) showed an effect of 50% or more. This is one part of the list.
Each molecule was assayed against DPAP1 (Plasmodium falciparum, UniProt Q8IIJ9) (assay: primary screen, percent inhibition; read by cleavage of a fluorogenic dipeptide substrate; higher = more effect of the substance).
Parameters: species or system P. falciparum D10 trophozoite lysates; single well
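Further: 30 min substrate incubation versus DMSO and 10 µM JCP410 controls.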

Chain of DPAP1 (Q8IIJ9 whole entry, looked up): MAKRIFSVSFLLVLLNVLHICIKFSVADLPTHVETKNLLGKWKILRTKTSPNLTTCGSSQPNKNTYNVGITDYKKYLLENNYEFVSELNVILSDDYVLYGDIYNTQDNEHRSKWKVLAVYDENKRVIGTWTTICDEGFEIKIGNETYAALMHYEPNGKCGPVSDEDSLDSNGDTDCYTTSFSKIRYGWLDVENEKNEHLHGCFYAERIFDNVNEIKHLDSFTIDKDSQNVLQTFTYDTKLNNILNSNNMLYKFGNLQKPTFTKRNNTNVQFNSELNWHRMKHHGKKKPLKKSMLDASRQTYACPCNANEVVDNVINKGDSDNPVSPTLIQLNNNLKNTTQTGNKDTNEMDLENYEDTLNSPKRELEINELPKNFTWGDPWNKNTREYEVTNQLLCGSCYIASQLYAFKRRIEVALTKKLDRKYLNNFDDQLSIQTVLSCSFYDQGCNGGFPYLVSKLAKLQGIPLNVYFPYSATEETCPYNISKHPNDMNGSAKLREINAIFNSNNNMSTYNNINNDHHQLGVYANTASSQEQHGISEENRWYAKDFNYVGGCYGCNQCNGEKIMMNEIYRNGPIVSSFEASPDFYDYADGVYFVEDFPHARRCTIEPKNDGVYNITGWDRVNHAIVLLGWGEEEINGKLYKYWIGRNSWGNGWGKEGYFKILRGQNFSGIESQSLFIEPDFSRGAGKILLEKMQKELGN

Row | SMILES | % Inhibition @ 10 uM [%]
1 | Cc1ccsc1-c1nc(CSCC(=O)NCc2ccc3c(c2)OCO3)c(C)o1 | -2.85
2 | O=C(O)CNC(=O)c1ccccc1Cl | -3.44
3 | Cc1cc(C)c(S(=O)(=O)Nc2ccc(Cl)c(Cl)c2)c(C)c1 | -1.22
4 | COCCC/N=C/C1=C(O)c2sccc2N(Cc2cccc(F)c2)S1(=O)=O | -3.09
5 | O=C(CSC1CC(=O)N(c2ccc(F)cc2)C1=O)Nc1cccc(F)c1 (centres unmarked) | -2.89
6 | Cc1nc2ccc(C(=O)Nc3ccc(N4CCOCC4)cc3)cc2s1 | 1.94
7 | CCCc1nc(SC)ncc1C(=O)Nc1nccs1 | 2.74
8 | COc1ccc(CC(C)NCc2ccccc2Cl)cc1 (centres unmarked) | 6.06
9 | O=C(O)c1cc2cc(Cc3ccccc3Cl)ccc2oc1=O | 0.221
10 | COc1ccc(Cl)cc1S(=O)(=O)N1CCN=C1c1ccccc1 | 3.66
11 | Clc1ccc(-c2noc(-c3ccccc3)n2)cc1 | -0.902
12 | COc1ccc(CN2C(=O)c3cccnc3C2=O)cc1S(=O)(=O)NCC1CCCO1 (centres unmarked) | 3.1
13 | CC(C)(C)NC(=O)CCN1C(=O)c2ccccc2C1=O | 16.8
14 | CC(C)OC(=O)NCCN1C(=O)C2C3C=CC(C3)C2C1=O (centres unmarked) | 3.67
15 | CCN1CCN(CC2CC3C=CC2C3)CC1 (centres unmarked) | 2.5
16 | Cc1cc(C)cc(NC=C2C(=O)N(C)C(=O)N(C)C2=O)c1 | 5.65
17 | COCCn1c(=O)c(C#N)cc2c(=O)n3ccccc3nc21 | -2.28
18 | Cc1cccc(CN2CCC(CNC(=O)c3cn(C)c(=O)c4c3c3ccccc3n4C)CC2)c1 | 1.37
19 | Cc1cc(C)c2c(n1)SCC(=O)N2CCCC(=O)NCc1ccccc1 | 1.03
20 | O=C(NCCc1ccc(Cl)cc1)C1CC(=O)N(CCc2ccccc2)C1 (centres unmarked) | -0.0542
21 | O=C(NC1CCCCC1)c1ccc(CS(=O)Cc2ccccc2Cl)o1 (centres unmarked) | -3.02
22 | Cc1n[nH]c(C)c1CCc1nc2c3ccccc3nc(NCCCOC(C)C)n2n1 | -2.42
23 | CC(CNC(=O)C1CCCCC1)NC(=O)C1CCCCC1 (centres unmarked) | 1.28
24 | N#CC1CC(c2ccccc2)=NN1c1ccccc1 (centres unmarked) | 1.7
25 | Cc1ccc(OCC(=O)Nc2cccc(Cl)c2Cl)cc1 | 2.69
26 | CC1CC(NC(=O)c2ccc(Br)s2)CC(C)(C)C1 (centres unmarked) | 3.32

Row | SMILES | % Inhibition @ 10 uM [%]
27 | O=C(NCCC1=CCCCC1)c1ccc2c(c1)ncn2C1CCCC1 | -3.12
28 | Cn1c(C(=O)NCC2CCCO2)cc2sc(Cl)cc21 (centres unmarked) | -12.6
29 | C=CCSc1nc(=O)cc(O)n1CC | 6.41
30 | CCC1CCc2nc3sc(C(=O)NCc4ccccc4OC)c(N)c3cc2C1 (centres unmarked) | 10.3
31 | Cc1ccc2nc(-c3ccccc3)cc(C(=O)O)c2c1 | 4.8
32 | CC(CC#CCN1CCOCC1)OC(C)(C)C (centres unmarked) | -0.268
33 | N#CC1=C(N)Oc2[nH]nc(-c3cccnc3)c2C1c1cc2c(cc1Br)OCO2 (centres unmarked) | -0.25
34 | Cc1sc2c(c1[N+](=O)[O-])C(=O)NCCC2 | 5.42
35 | O=C(Nc1ccccc1)c1cc(S(=O)(=O)Nc2ccc(Cl)cn2)ccc1Cl | 10
36 | O=C(NCCN1C(=O)C2C3C=CC(C3)C2C1=O)N1CCCCC1 (centres unmarked) | -6.78
37 | O=c1c2oc3ccccc3c2n(Cc2ccc(F)cc2)c(=O)n1Cc1ccc2c(c1)OCO2 | -1.39
38 | CC(=O)c1oc2ccccc2c1NC(=O)c1ccc(C(F)(F)F)cc1 | -3.04
39 | CCc1ccc(-c2cn3c(n2)sc2cc(C(=O)N4CCN(c5ncccn5)CC4)ccc23)cc1 | 20.5
40 | COc1ccc(OC)c2c1nc(C(C)O)n2C (centres unmarked) | -2.72
41 | Cc1csc(NC(=O)c2sc3nc4c(c(C(F)(F)F)c3c2N)CCCC4)n1 | -0.318
42 | COc1ccccc1N(C)C(=O)c1cnoc1C | -2.74
43 | CC(=O)Nc1sc2c(c1C(N)=O)CCCCCC2 | 2.65
44 | O=c1c2ccccc2nc(/C=C/c2ccc(O)c(O)c2)n1-c1ccccc1 | 2.65
45 | CCOc1ccc(C2CC(=O)NC3=C2C(=O)CC(c2ccccc2Cl)C3)cc1 (centres unmarked) | -0.396
46 | CC(=O)NCCc1c[nH]c2ccc(OCc3ccccc3)cc12 | 1.29
47 | CCn1c(CCNC(=O)c2ccco2)nc2ccccc21 | -4.95
48 | O=C1CC(NC2CCN(c3ncc(C(F)(F)F)cc3Cl)CC2)C(=O)N1Cc1ccccc1 (centres unmarked) | 4.31
49 | CCn1ccc(C(=O)NCc2ccc(C(=O)O)cc2)n1 | -0.67
50 | CCOc1ccc(-c2nc(CSCC(=O)NC(C)CC)c(C)o2)cc1 (centres unmarked) | 5.28
51 | O=C(Cn1ncc2c3ccccc3nc-2c1O)N1CCN(c2ccccn2)CC1 | 3.5
52 | CCN(CC)C(=O)CSc1nc(O)cc(=O)n1-c1ccc(Cl)c(Cl)c1 | 4.09

Row | SMILES | % Inhibition @ 10 uM [%]
53 | COc1ccc(Br)cc1CNC(=O)C1CCCN(c2nc3ccccc3o2)C1 (centres unmarked) | 2.05
54 | COc1ccccc1NC(=O)CCCc1ccccc1 | 4.22
55 | CN(C)c1ccc(CN2CCN(c3ccc(Cl)cc3)CC2)cc1 | 3.01
56 | CCOC(=O)C1=C(Sc2nnc3nc(C)cc(C)n23)NC(=O)NC1c1ccccc1 (centres unmarked) | 0.627
57 | CC(C)(C)c1ccccc1OCCCN1CCCC1 | 5.03
58 | CCN(CC)S(=O)(=O)c1cc(C(=O)Nc2ccc(Cl)cn2)ccc1C | -4.72
59 | COc1cccc2c3c(c(O)nc12)CCC(C)(C)O3 | -1.04
60 | O=C(CSc1ccc2nnc(CCNS(=O)(=O)c3ccccc3)n2n1)NC1CCCCC1 | -1.11
61 | CCC1(CC)C(=O)N(C(=O)c2ccccc2)C(=O)N(C(=O)c2ccccc2)C1=O | -2.87
62 | CCCCCCSc1nc(O)cc(=O)n1CC | 1.38
63 | CC(=O)Nc1cccc(NC(=O)Cc2ccccc2)c1 | 3.03
64 | COC(=O)c1cc(OC)c(OC)cc1NC(=O)c1ccccc1 | -0.128
65 | COc1ccc(-c2cc(C)no2)cc1S(=O)(=O)N1CCN(c2ccccn2)CC1 | 2.74
66 | O=C(COc1cccc2ccccc12)Nc1ccc(Cl)cc1 | 1.96
67 | Cc1nc2ccccc2n1CCc1nc2c3ccccc3nc(NC3CCCCC3)n2n1 | -4.21
68 | COc1ccc(OC)c(C2C(C(=O)c3ccc4c(c3)OCCO4)=C(O)C(=O)N2CCN(C)C)c1 (centres unmarked) | -6.2
69 | COC(=O)c1sccc1S(=O)(=O)N1CCOCC1 | 1.97
70 | CC(C)(C)OC(=O)N1CCC(C(N)=O)CC1 | 2.39
71 | Cc1nc2c(-c3ccc(F)cc3)c(C)nn2c(C)c1CCC(=O)NC(C)c1ccc2c(c1)OCCO2 (centres unmarked) | 2.93
72 | COc1ccc(Cn2ccc3nc(C)c(C(=O)N4CCN(c5ncccn5)CC4)cc3c2=O)cc1 | 2.48
73 | COc1ccc(C(=O)Nc2ccc(Cl)cc2C(=O)NCc2ccco2)cc1 | -4.39
74 | COC(=O)c1ccc(C(=O)N(CCCN(C)C)c2nc3c(F)cc(F)cc3s2)cc1 | -0.578
75 | COc1ccc(OC)c(/C=C2/N=C(c3cccc(Cl)c3Cl)OC2=O)c1 | -19.2
76 | O=C(Nc1cccc(Cl)c1)c1ccco1 | -2.63
77 | Cc1ccc(NC(=O)c2c(C)nc(Nc3nc4ccccc4o3)nc2C)cc1 | 5.66
78 | Cc1ccc(NC(=O)CN2C(=O)S/C(=C\c3cccc(O)c3)C2=O)cc1 | 2.37

Row | SMILES | % Inhibition @ 10 uM [%]
79 | CC(=O)NCc1nc2ccccc2n1Cc1ccccc1F | 1.23
80 | CCOC(=O)C(=O)Nc1sc2c(c1C(=O)OCC)CC(C)(C)OC2 | -3.06
81 | COCCNC(=O)CN1N=C(c2ccccc2)CCC1=O | 6.86
82 | Cc1n[nH]c(C)c1N1C(=O)c2cccc3cc(Br)cc(c23)C1=O | -1.44
83 | CS(=O)(=O)N1CCC(C(=O)NCc2ccccc2Cl)CC1 | 1.88
84 | CC1CN(S(=O)(=O)c2ccccc2)C(C)CN1S(=O)(=O)c1ccccc1 (centres unmarked) | -6.29
85 | CCOC(=O)c1cnc2cc(Cl)c(OC)cc2c1NCC1CCCO1 (centres unmarked) | 0.231
86 | Cc1cccc(CSc2nnc(C)n3c2cc2sccc23)c1 | 3.61
87 | COc1ccc(/C=C\c2onc(C)c2S(=O)(=O)N2CCC(C(=O)NCc3ccco3)CC2)cc1 | 0.458
88 | CCCOC(=O)CSc1nc(C)cc(C)c1C#N | 1.13
89 | CC(C)=CCC[C@H](C)CCN1CCN(C/C=C/c2ccccc2)CC1 | -3.15
90 | O=C(Cc1ccccc1)Nc1ccc(S(=O)(=O)N2CCOCC2)cc1 | 2.64
91 | N=C(NOC(=O)c1ccccc1F)c1cccnc1 | 6.59
92 | CC1CCc2c(sc3nc(-c4cc5ccccc5oc4=O)nc(O)c23)C1 (centres unmarked) | 0.372
93 | CCOc1ccccc1C(=O)Nc1nc2ccc(C)cc2s1 | -0.28
94 | CCC(=O)Nc1ccc2c(C)cc(O)nc2c1 | -5.54
95 | CC1CCC2C(=O)N(c3ccccc3Cl)C(=O)C2C1 (centres unmarked) | -9.24
96 | COc1ccc(C2OCC3(CO2)SC(N)=NC3=O)cc1OC (centres unmarked) | 2.73
97 | COc1cc(CN2CCc3ccccc3C2)cc(OC)c1O | -0.969
98 | CCC(NS(=O)(=O)c1ccc(C(=O)O)cc1)C12C[C@H]3C[C@@H](C1)C[C@@H](C2)C3 (some centres unmarked) | -1.07
99 | O=[N+]([O-])c1ccc(N2CCN(Cc3cccs3)CC2)cc1 | -3.71
100 | COc1ccc(C2C3=C(CCCC3=O)N(CC(=O)O)C3=C2C(=O)CCC3)cc1 | 0.389
101 | COc1ccc(C(C)NCc2cccnc2)cc1 (centres unmarked) | -7.96
102 | Cc1ccc(-c2nnc(NCc3ccccc3)c3ccccc23)cc1S(=O)(=O)N1CCOCC1 | -3.41
103 | CCN(CC)CCN(C)Cc1cc(F)ccc1F | -1.75
104 | CC(C)CNC(=O)CN(Cc1ccc(Br)cc1)S(=O)(=O)c1ccc(Cl)cc1 | -1.63

Source: article PMC6919601, “Identification of Plasmodium dipeptidyl aminopeptidase allosteric inhibitors by high throughput screening” (PLoS ONE, 2019)
